# Source: publication PMC4336329 (PLoS ONE, 2015)
# Screen size: about 310,000 compounds; about 14,000 (4.5%) showed an effect of 50% or more. The effect is printed as a negative number. The list shows a part of the results.
# Target: human ether-à-go-go-related gene (hERG) potassium channel (human, UniProt Q12809)
# Test: primary screen, population patch clamp on CHO cells stably expressing hERG
# 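Note: peak tail current of the secondary pulse compared with the same well before compound.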
# Chain of human ether-à-go-go-related gene (hERG) potassium channel (Q12809 whole entry, looked up): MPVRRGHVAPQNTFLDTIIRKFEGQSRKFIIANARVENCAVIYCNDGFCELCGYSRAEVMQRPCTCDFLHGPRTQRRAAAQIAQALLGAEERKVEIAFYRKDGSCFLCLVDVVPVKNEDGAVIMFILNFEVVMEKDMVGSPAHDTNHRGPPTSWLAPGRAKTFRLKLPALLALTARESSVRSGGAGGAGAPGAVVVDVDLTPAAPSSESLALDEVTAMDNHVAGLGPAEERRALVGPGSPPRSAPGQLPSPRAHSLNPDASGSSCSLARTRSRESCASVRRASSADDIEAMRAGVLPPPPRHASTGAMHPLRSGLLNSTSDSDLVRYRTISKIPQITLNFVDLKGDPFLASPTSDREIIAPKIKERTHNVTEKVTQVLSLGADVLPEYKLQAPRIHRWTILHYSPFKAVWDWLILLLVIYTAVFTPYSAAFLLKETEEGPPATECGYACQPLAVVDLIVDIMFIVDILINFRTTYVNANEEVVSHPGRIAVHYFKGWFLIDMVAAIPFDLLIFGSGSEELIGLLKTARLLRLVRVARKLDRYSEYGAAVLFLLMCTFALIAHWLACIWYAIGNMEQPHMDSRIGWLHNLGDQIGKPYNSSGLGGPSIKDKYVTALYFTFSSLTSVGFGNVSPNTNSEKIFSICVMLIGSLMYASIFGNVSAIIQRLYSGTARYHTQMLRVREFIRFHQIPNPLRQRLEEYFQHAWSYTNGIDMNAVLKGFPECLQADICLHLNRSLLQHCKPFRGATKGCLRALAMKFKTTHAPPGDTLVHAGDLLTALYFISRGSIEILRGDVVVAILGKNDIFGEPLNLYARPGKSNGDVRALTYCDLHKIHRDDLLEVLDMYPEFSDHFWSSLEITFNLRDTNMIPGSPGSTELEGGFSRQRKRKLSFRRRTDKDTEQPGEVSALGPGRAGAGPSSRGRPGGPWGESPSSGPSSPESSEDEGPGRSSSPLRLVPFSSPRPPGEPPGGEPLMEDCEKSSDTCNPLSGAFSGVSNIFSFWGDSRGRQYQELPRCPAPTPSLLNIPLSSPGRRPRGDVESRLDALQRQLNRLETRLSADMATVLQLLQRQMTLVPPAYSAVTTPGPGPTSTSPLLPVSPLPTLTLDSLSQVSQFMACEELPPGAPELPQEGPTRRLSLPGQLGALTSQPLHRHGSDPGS
row,SMILES,"hERG current change (%, negative = inhibition) at 10uM [%]"
1,Cc1nnc(SC(C)C(=O)Nc2ccc(S(=O)(=O)NC3CCCCC3)cc2)s1 (centres unmarked),-0.964
2,Cc1ccc2cc(C3C(C#N)=C(N)Oc4c3ccc3cccnc43)c(=O)[nH]c2c1 (centres unmarked),-21.5
3,CCOC(=O)c1[nH]c2ccc(OC)cc2c1NC(=S)N1CCN(c2ccccn2)CC1,-6.45
4,Cc1cccc(C(C(=O)NC2CCCC2)N(C(=O)c2csnn2)C2CC2)c1 (centres unmarked),-30.1
5,CC(C)[C@H](NC(=O)OCc1ccccc1)C(=O)OCC(=O)NC1(C#N)CCCC1,17.3
6,COc1ccccc1-c1ocnc1C(=O)N1CCN(S(=O)(=O)c2ccc(NC(C)=O)cc2)CC1,2.61
7,COc1ccc(O)c(/C=N/Nc2nc3ccccc3[nH]2)c1,-23.7
8,Cc1ccc(S(=O)(=O)CC(=O)c2ccc(C)c([N+](=O)[O-])c2)cc1,2.91
9,CS(=O)(=O)c1ccc(C(=O)NCC(c2ccco2)N2CCCCC2)cc1 (centres unmarked),18
10,CCOC(=O)c1c(C)[nH]c(C)c1C(=O)CN1C(=O)NC2(CCC(C)CC2)C1=O (centres unmarked),12.9
11,COc1ccccc1NC(=O)CCC(=O)N1CC(C)Oc2ccc(C)cc21 (centres unmarked),-1.81
12,O=C(c1cnc2n(c1=O)CCS2)N1CCN(C(c2ccccc2)c2ccc(Cl)cc2)CC1 (centres unmarked),-52.4
13,O=C(NCC(=O)N(c1ccccc1)C(C(=O)NC1CCCCC1)c1cccnc1)c1ccco1 (centres unmarked),6.65
14,CC(C)OC(=O)CSc1nnnn1-c1ccc2c(c1)OCCO2,-2.67
15,O=C(N/N=C/c1cccc(OCc2ccccc2)c1)c1cccs1,-1.15
16,CCOC(=O)C1=C(N)OC2=C(C(=O)CCC2)C1c1ccc(C)s1 (centres unmarked),-54.3
17,O=C(CN1CCCCCC1)Nc1ccccc1Oc1ccccc1,-7.84
18,O=C(Nc1c(F)cccc1F)c1ccc2c(c1)CCN2S(=O)(=O)c1ccccc1,7.22
19,COC(=O)CCCC(=O)Nc1ccc(Cl)c(Cl)c1,-3.49
20,COc1ccc(C(=O)Cn2c(Br)nc3c2c(=O)n(C)c(=O)n3C)cc1,-10.6
21,COc1ccc2nc(Cl)c(/C=N/Nc3ccccn3)cc2c1,18.8
22,Cc1cc(C)c[n+](-c2nc([O-])sc2C=O)c1,8.38

row,SMILES,"hERG current change (%, negative = inhibition) at 10uM [%]"
1,Cc1ccc(C2C=NN(c3ccccc3)C2=O)cc1 (centres unmarked),23.7
2,Cn1cnnc1Sc1ccc(/C=C(\CC(=O)O)c2nc3ccccc3s2)cc1[N+](=O)[O-],6.84
3,Cc1c(C(=O)Nc2ccc(Cl)cc2)c2ccccn2c1C(=O)c1ccc(F)cc1,-7.82
4,Fc1ccc(N=C2NN=C(c3cc(F)ccc3F)CS2)cc1,-13
5,Cc1cc(C)n2cc(CSc3nc4ccccc4[nH]3)nc2n1,-4.83
6,COC(=O)CSc1snnc1-c1ccc(Cl)c(Cl)c1,11.5
7,CCC1=C(OC(=O)N(CC)CC)N2C(=O)OC(=NCC(=O)OC)[C@]2(C)[C@H]2C1=CC[C@H]1C(=O)N(CC(=O)OC)C(=O)[C@H]12,2.59
8,COCCn1c(SCC(=O)NCC2CCCO2)nc2c(c1=O)SC(C)C2 (centres unmarked),20.4
9,CC(=O)c1cccc(NC(=O)CCc2nc3sc4c(c3c(=O)[nH]2)CCCC4)c1,-3.33
10,COc1ccc(O)c(/C=N/Nc2nc(C)cc(-c3ccccc3)n2)c1,-1.82
11,O=C(CC1C(=O)NCCN1CC1CCCCC1)NCc1ccc(F)cc1F (centres unmarked),4.98
12,Cc1ccc2cc3cc(C(=O)N4CCC5(CC4)OCCO5)oc3nc2c1,1.57
13,C=C[C@@H]1c2ccccc2N(S(=O)(=O)c2ccc(C)cc2)[C@H](c2ccc(C(F)(F)F)cc2)C1(C#N)C#N,5.54
14,COc1ccc(/C=C2\SC(=S)N(CCCC(=O)Nc3ccccc3C(=O)O)C2=O)cc1OC,6
15,O=[N+]([O-])c1cccc(-c2nnc3ccc4ccccc4n23)c1,-38.6
16,CN(C)CCCN(C(=O)C1=COCCO1)c1nc2ccc(Br)cc2s1.Cl,-67.2
17,O=C(/C=C/c1cccc([N+](=O)[O-])c1)Nc1ccc(NC(=O)c2cccs2)cc1,5.79
18,CCN(Cc1ccccc1)S(=O)(=O)c1c(C)[nH]c(C)c1C(=O)N1CCCC1,6.06
19,NC(=O)c1cc(C(=O)c2cccc(Cl)c2Cl)c[nH]1,-3.85
20,CCOC(=O)c1ccc(Cl)c(NC(=O)c2ccc(-c3ccccc3)cc2)c1,1.02
21,O=C1Nc2ccccc2C(=O)N2CCCCC12 (centres unmarked),14.2
22,O=C(c1ccc([N+](=O)[O-])cc1)N1CCCC1,4.5

row,SMILES,"hERG current change (%, negative = inhibition) at 10uM [%]"
1,CCn1c(SCC(=O)c2ccccc2)nnc1-c1cnccn1,-8.6
2,Cc1ccc2cccc(NC(=S)NC(=O)c3ccnn3C)c2n1,13.7
3,CC1CCCC(NC(=O)C2CCN(S(=O)(=O)c3cccc4nonc34)CC2)C1C (centres unmarked),4.71
4,Cn1c(-c2ccccc2)cnc1NCc1cccc([N+](=O)[O-])c1,-72
5,C/C(N)=C(/C#N)C(=O)COC(=O)C1CCC(C(C)(C)C)CC1 (centres unmarked),-7.3
6,COc1ccc(-c2nnc(SCc3ccccc3F)o2)cc1,1.79
7,Cc1ccc2nc(Cc3ccc(N)cc3)oc2c1,0.517
8,Cc1ccc2cc(CN(Cc3ccco3)C(=O)NCc3ccccc3)c(=O)[nH]c2c1C,4.33
9,CS(=O)(=O)Nc1ccc(Cc2noc(-c3ccc4[nH]cc(CCN)c4c3)n2)cc1.O,13.9
10,CCN(CC(=O)N1CCOCC1)S(=O)(=O)c1ccc(F)cc1,10.6
11,COc1ccc(NC(=O)c2ccccc2Sc2ccc(NC(C)=O)nc2)cc1,13.1
12,Cc1c(C(C)C)c(=O)n(-c2ccc(S(=O)(=O)NCc3ccccc3)cc2)n1C,-16.8
13,O=C(Nc1ccccc1)NC1CCN(Cc2c(F)cccc2Cl)CC1,7.91
14,Cc1cccc(NC(=O)CSc2nnc(-c3ccco3)n2CC2CCCO2)n1 (centres unmarked),-23.4
15,COc1cc2c(cc1OC)C(c1cccc(C)c1)CC(=O)N2 (centres unmarked),-10.5
16,CCC1(CC)Nc2ccccc2C(=O)N1c1ccc(OC)cc1,-2.91
17,O=C(CC1C(=O)NCCN1Cc1ccccc1)NC1CCCCCC1 (centres unmarked),8.11
18,CCOc1cc(/C=C(\C#N)C(=O)Nc2ccc(S(N)(=O)=O)cc2)ccc1OCCN1CCOCC1,9.26
19,CS(=O)(=O)N(CCc1ccccc1)CC(=O)Nc1ccccc1,6.23
20,O=C(O)c1cc2c(=O)c3ccccc3oc2nc1C(F)(F)F,17.7
21,CSc1nc(-c2cccs2)c(C#N)c(=O)[nH]1,10.3
22,O=C(Cc1ccc(S(=O)(=O)N2CCCC2)s1)N1CCN(c2ccc(F)cc2)CC1,-56.2

row,SMILES,"hERG current change (%, negative = inhibition) at 10uM [%]"
1,Cc1ccc(C)c(SCC(=O)NC(=O)NCc2ccccc2)c1,5.71
2,CCc1noc(C)c1C(=O)OCC(=O)N1CCc2ccccc21,-13.5
3,COc1cccc(C(=O)Nc2ccc(S(=O)(=O)Nc3cc(C)nc(C)n3)cc2)c1,4.05
4,CC(C)CN1C=C2C(=O)C(C)(OC(=O)CCc3ccccc3)C(=O)C=C2C=C1c1ccc(C#N)cc1 (centres unmarked),-26.9
5,CCC1Sc2ccccc2N(CC(=O)NCc2ccc3c(c2)OCO3)C1=O (centres unmarked),-26.2
6,COC(=O)c1ccc(NC(=O)C2C3C=CC(O3)C2C(=O)O)cc1 (centres unmarked),17.2
7,CCOC(=O)C1=C(C)Nc2nc(SCC)nn2C1c1ccc(OC)cc1 (centres unmarked),21.9
8,COc1cc(/C=C/C(=O)NC(C)C2CC3CCC2C3)cc(OC)c1OC (centres unmarked),10.6
9,COc1ccc(CCC(C)N2CCc3ccccc3C2)cc1 (centres unmarked),-61.7
10,O=C(C1=C[C@H](c2coc3ccccc3c2=O)C[C@H](OCCCCO)O1)N1CCOCC1,-16
11,N#Cc1c(/N=C/c2cccs2)sc2c1CCC2,-4.96
12,O=C(O)Cn1c(O)c(C2=c3ccccc3=NC2=O)sc1=O,-2.7
13,Cc1ccc(C)c(N2N=C(C(=O)Nc3ccc(S(=O)(=O)N4CCCC4)cc3)CCC2=O)c1,-4.34
14,O=C(CN1C(=O)CC(c2ccccc2)=Nc2ccccc21)NC1CCCCC1,-11.4
15,COc1ccc(C(CNc2ncnc3sc(C)c(C)c23)N(C)C)cc1 (centres unmarked),-56.4
16,COc1cc(CNC(=O)c2cccc(COc3ccc(Cl)cc3)c2)cc(OC)c1,10.9
17,COc1ccc(C(=O)Oc2ccc(/C=N/O)cc2)cc1,-2.47
18,CN(C)C(=O)Oc1cc(OC(=O)N(C)C)cc(C(O)CNC(C)(C)C)c1.Cl (centres unmarked),12.9
19,CCN(CC(=O)Nc1ccccc1Br)Cc1nc2ccccc2c(=O)[nH]1,-22.3
20,CCOC(=O)c1c(-c2ccccc2)csc1NC(=O)c1cccc(N2C(=O)CCC2=O)c1,-5.54
